According to PubChem BioAssay AID504332 (National Center for Advancing Translational Sciences (NCATS), 2011):
In all, about 350,000 compounds went through this assay and about 31,000 (8.9%) were called active. Inconclusive results, whose numbers are uncertain, are shown with a selection of clear calls. The call rests on the fitted dose curve; in most records, active means well fitted inhibition curve with a large enough effect; inconclusive means small, poorly fitted or top-dose-only effect; inactive means no such curve, though single readings can be large or run the other way. Where the call is inconclusive, the potency comes from a doubtful curve fit.

biological target: Histone-lysine N-methyltransferase EHMT2 (Homo sapiens) (UniProt Q96KQ7); test: qHTS Assay for Inhibitors of Histone Lysine Methyltransferase G9a; conditions: G9a H3K9 monomethylation, AlphaScreen, 2 h; activity, negative = inhibition: at 59 µM (top of the series) unless noted; further: nearly all actives have a fitted effect of over 75% in size
Summary of the method: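 Methyltransferase reactions run at room temperature for 2 h (20 nM enzyme, 500 nM biotin-H3K9 peptide, 20 uM SAM) after a 15 min compound preincubation; product detected by AlphaScreen beads and anti-H3K9me1 antibody.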
On the % scale 0 is the no-effect control and ±100 the full control effect; potency means the concentration at half of the fitted maximal effect; tags describe the fitted curve by direction and shape.

Chain of UniProt Q96KQ7 (Q96KQ7 whole entry, looked up): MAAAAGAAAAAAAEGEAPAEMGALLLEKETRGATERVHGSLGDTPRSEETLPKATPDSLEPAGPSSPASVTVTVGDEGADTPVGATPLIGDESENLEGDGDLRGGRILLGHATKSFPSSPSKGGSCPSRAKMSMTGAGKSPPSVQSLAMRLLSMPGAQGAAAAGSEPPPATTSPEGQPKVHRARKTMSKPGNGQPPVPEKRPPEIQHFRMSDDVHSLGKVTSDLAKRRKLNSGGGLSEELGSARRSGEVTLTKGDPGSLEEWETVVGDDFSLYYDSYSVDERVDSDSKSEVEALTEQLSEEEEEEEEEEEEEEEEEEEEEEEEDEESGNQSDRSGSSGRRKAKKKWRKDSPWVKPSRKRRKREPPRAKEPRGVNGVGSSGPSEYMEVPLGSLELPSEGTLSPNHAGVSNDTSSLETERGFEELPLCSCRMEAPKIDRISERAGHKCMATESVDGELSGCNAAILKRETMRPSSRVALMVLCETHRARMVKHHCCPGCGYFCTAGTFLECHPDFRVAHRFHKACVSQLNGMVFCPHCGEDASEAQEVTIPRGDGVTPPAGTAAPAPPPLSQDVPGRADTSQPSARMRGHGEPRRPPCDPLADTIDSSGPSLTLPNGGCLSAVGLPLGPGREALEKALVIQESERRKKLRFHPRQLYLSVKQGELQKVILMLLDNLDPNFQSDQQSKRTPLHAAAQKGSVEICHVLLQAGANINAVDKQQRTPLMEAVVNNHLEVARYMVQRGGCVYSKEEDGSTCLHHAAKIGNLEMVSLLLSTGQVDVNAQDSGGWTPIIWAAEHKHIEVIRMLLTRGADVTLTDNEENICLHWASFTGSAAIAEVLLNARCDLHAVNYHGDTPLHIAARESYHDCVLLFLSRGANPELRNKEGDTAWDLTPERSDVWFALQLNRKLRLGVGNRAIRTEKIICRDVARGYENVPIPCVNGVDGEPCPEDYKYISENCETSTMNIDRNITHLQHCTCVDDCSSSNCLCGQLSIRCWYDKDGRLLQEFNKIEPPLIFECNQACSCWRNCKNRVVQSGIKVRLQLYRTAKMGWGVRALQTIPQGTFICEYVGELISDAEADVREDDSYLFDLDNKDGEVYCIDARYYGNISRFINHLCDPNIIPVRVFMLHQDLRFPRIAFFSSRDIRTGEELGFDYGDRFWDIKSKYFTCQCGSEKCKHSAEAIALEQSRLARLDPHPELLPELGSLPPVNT

SMILES | Potency | activity, negative = inhibition
NS(=O)(=O)c1ccc(NC(=S)NCc2ccccc2Cl)cc1 | inconclusive: 25.1 µM [inhibitor, single point] | 
Oc1[nH]c2ccccc2c1N=Nc1nncc2ccccc12 | active: 12.6 µM | 
CC(C)(C)c1ccc(OCCNC(=S)NC(=O)c2cccnc2)cc1 |  | inactive: 11.6%
COc1ccc(N2CN=C3SCC(=O)N3C2)cc1 | inconclusive: 20 µM [inhibitor, single point] | 
COC(=O)c1cc(=O)n(-c2c(Cl)cc(C(F)(F)F)cc2Cl)[nH]1 | inconclusive: 79.4 µM [inhibitor, partial curve, poor fit] | 
CCC(=O)Nc1nnc(SCC(=O)c2ccc3c(c2)Cc2ccccc2-3)s1 |  | inconclusive: -74.5% [inhibitor]
CN(C)c1ccc(N2C(=NC(=O)COc3ccccc3)SC3CS(=O)(=O)CC32)cc1 (stereo not given) | active: 50.1 µM | 
O=C(CN1CCN(c2ncc(C(F)(F)F)cc2Cl)CC1)Nc1ccc2c(c1)OCO2 | inconclusive: 50.1 µM [inhibitor, partial curve, poor fit] | 
N[C@H](C(=O)O)[C@H]1C[C@H]1C(=O)O |  | inactive: 43.6%
O=C(c1ccco1)N1CCN(Cc2csc(-c3ccccc3Cl)n2)CC1 | inconclusive: 89.1 µM [inhibitor, single point] | 
Cc1onc(-c2ccccc2)c1CNS(=O)(=O)c1ccccc1[N+](=O)[O-] | inconclusive: 70.8 µM [inhibitor, partial curve, poor fit] | 
Cn1c(SCC(=O)N2CCCCCC2)nc2c(c1=O)SCC2 |  | inactive: -12.3% [at 102 µM]
COc1cccc(CN2CCNC(=O)C2CC(=O)N(C)CCC2CCOCC2)c1 (stereo not given) | inconclusive: 89.1 µM [inhibitor, single point] | 
Cn1cc(/C=C(\NC(=O)c2ccccc2Cl)C(=O)N2CCOCC2)c2ccccc21 | inconclusive: 11.2 µM [inhibitor, partial curve, poor fit] | 
CCN(CC)c1ccc(NC(=O)C(NS(=O)(=O)c2cccs2)C(C)C)c(C)c1 (stereo not given) | inconclusive: 8.91 µM [inhibitor, partial curve, poor fit] | 
NC(=S)Nc1ccc(S(=O)(=O)c2ccc(NC(N)=S)cc2)cc1 | inconclusive: 50.1 µM [inhibitor, partial curve, poor fit] | 
Cc1cc(N2CCN(C)CC2)ccc1NC(=O)c1cccc(S(=O)(=O)N2CCc3ccccc3C2)c1 | active: 28.2 µM | 
O=C(NC(=S)N1CCOCC1)c1cn(-c2ccccc2)nc1-c1ccccc1 | inconclusive: 39.8 µM [inhibitor, single point] | 
CC(C)CC(COCc1ccc(Cl)cc1)N1CCN(C(=O)c2ccc(C(F)(F)F)cc2)CCC1=O (stereo not given) | inconclusive: 100 µM [inhibitor, single point] | 
COc1ccc(NC(=S)N(CCCN2CCC(C)CC2)Cc2cccs2)cc1Cl | inconclusive: 39.8 µM [inhibitor, single point] | 
CC1(C)CC(=O)c2sc(NS(=O)(=O)c3ccc([N+](=O)[O-])cc3)nc2C1 | inconclusive: 39.8 µM [inhibitor, partial curve, poor fit] | 
CCCCn1c(CN2CCN(c3cccc(Cl)c3)CC2)nc2c1c(=O)[nH]c(=O)n2C | inconclusive: 31.6 µM [inhibitor, single point] | 
CC(=O)N1CC(C)Oc2ccc(S(=O)(=O)NC(CC(=O)O)c3ccccc3C)cc21 (stereo not given) | active: 50.1 µM | 
NC(=O)c1cc(N2C(=O)C=CC2=O)ccc1Cl | active: 1.26 µM | 

SMILES | Potency | activity, negative = inhibition
CCOC(=O)Cc1csc(NC(=O)CC)n1 |  | inactive: 8%
COc1ccccc1CN1C[C@@H]2C[C@@H](c3ccccc3C)N3CCC[C@@]23C1=O |  | inactive: 5.06% [at 102 µM]
CCN1CCN(C(=O)N(c2ccccc2)c2ccccc2)CC1 | inconclusive: 89.1 µM [inhibitor, single point] | 
COc1ccccc1N1CCN(C2CCCN(S(=O)(=O)c3cccc(Cl)c3)C2)CC1 (stereo not given) | inconclusive: 79.4 µM [inhibitor, single point] | 
CN(C(=O)c1cnc(N2CCOCC2)c2ccccc12)c1ccccc1F |  | inactive: -4.9%
Cc1cc(C)c2c(N=NN3CCOCC3)[nH]nc2n1 | active: 8.91 µM | 
O=C(Nc1cc(S(=O)(=O)N2CCCC2)ccc1Cl)C1=COCCO1 | inconclusive: 89.1 µM [inhibitor, single point] | 
COC(=O)c1sc(SC)c(S(=O)(=O)C(C)C)c1N/N=C(\C#N)S(=O)(=O)c1ccccn1 | inconclusive: 70.8 µM [inhibitor, partial curve, poor fit] | 
Cc1nc(Nc2cccc(O)c2)c2oc3ccccc3c2n1 | inconclusive: 89.1 µM [inhibitor, single point] | 
COc1ccc(N2CSC3=C(C#N)C(c4cccs4)CC(=O)N3C2)cc1 (stereo not given) | active: 2.82 µM | 
COc1ccc(C(=O)NCCS(=O)(=O)N2CCOCC2)cc1 |  | inactive: -42% [at 102 µM]
Cc1cc(CSc2ccccc2)ccc1NC(=O)c1ccc(Br)cc1 |  | inactive: 44.1%
Cc1ccc(NC(=O)CSc2nnc(C)n3c2cc2sccc23)c(C)c1 | inconclusive: 20 µM [inhibitor, partial curve, poor fit] | 
COC(=O)c1cc(C)nc2c1C(=O)C(=O)C=C2N1CCOCC1 | active: 44.7 µM | 
COc1cccc(NC(=O)CSc2nc3c([nH]c4ccccc43)c(=O)n2-c2ccccc2)c1 |  | inactive: 3.92%
COc1ccc(-c2nc3c(Br)c(N)c(Br)cc3o2)cc1 | inconclusive: 28.2 µM [inhibitor, single point] | 
COc1cc(NC(=O)C2CC(c3ccccc3O)=NO2)c(OC)cc1Cl (stereo not given) | inconclusive: 0.501 µM [inhibitor, partial curve, poor fit] | 
Cc1cc(NC(=O)CN2CCCC2c2nc3ccccc3s2)no1 (stereo not given) | inconclusive: 17.8 µM [inhibitor, partial curve, poor fit] | 
Cc1cc(NS(=O)(=O)c2ccc(NC(=S)NC(=O)c3ccncc3)cc2)no1 | inconclusive: 39.8 µM [inhibitor, partial curve, poor fit] | 
COc1ccc(/C(O)=C2/C(=O)C(=O)N(CCCN(C)C)C2c2ccccc2)cc1Cl (stereo not given) | inconclusive: 89.1 µM [inhibitor, single point] | 
O=S(=O)(c1ccc(C(F)(F)F)cc1)N1CCN(CCOc2ccccc2)CC1 | inconclusive: 79.4 µM [inhibitor, partial curve, poor fit] | 
CCN(CC)CCN1C(=O)c2oc3ccccc3c(=O)c2C1c1ccccc1 (stereo not given) |  | inactive: -1.77% [at 0.501 µM]
Cc1cccc(NC(=S)NCc2ccco2)c1C | inconclusive: 39.8 µM [inhibitor, single point] | 
CC(C)(C)OC(=O)N[C@@H](Cc1ccccc1)c1nnc(SCC(N)=O)o1 | inconclusive: 50.1 µM [inhibitor, partial curve, poor fit] | 

SMILES | Potency | activity, negative = inhibition
S=c1[nH]nc(-c2ccc(Br)cc2)n1Cc1ccccc1 | active: 10 µM | 
O=c1oc2ccccc2nc1/C=C(O)/C=C\c1ccccc1 | active: 56.2 µM | 
CCC(CC)NC(=O)c1ccccc1Oc1ccccc1 |  | inactive: 8.92%
O=C(OCC(=O)c1c[nH]c2ccccc12)c1cc2ccccc2cc1O | inconclusive: 22.4 µM [inhibitor, partial curve, poor fit] | 
COc1cccc(N2C(=O)C3CCCN3C2=S)c1 (stereo not given) | inconclusive: 79.4 µM [inhibitor, single point] | 
CC1=C(C(=O)NC2CCCC(C)C2C)C2(CCCCC2)OC1=O (stereo not given) |  | inactive: -2.93%
COc1ccc(-n2cc(C(=O)O)c3ccccc3c2=O)cc1 |  | inactive: 21.1% [at 102 µM]
CCn1nnnc1SCC(=O)c1cc(OC)ccc1OC | inconclusive: 50.1 µM [inhibitor, partial curve] | 
O=C1C(Cl)=C(NCCc2ccccc2)C(=O)N1CCc1ccccc1 |  | inactive: 4.1% [at 12.7 µM]
Cc1csc(NC(=O)c2ccccc2)n1 |  | inactive: 15% [at 0.501 µM]
CCOC(=O)c1[nH]c2ccc(F)cc2c1NC(=O)c1ccccc1C(=O)O | active: 14.1 µM | 
CCCCNC(=O)CCNS(=O)(=O)c1ccc(C)cc1 |  | inactive: 9.57% [at 102 µM]
COc1ccc(OC)c(NC(=O)C2CC(=O)N(c3ccc(Br)cc3)C2)c1 (stereo not given) | inconclusive: 28.2 µM [inhibitor, partial curve, poor fit] | 
Cc1oc2ncn(C)c(=O)c2c1C(=O)Nc1ccccn1 |  | inactive: -0.718%
Cc1cc(C)cc(N(CC(=O)NC2CCC(C)CC2)S(=O)(=O)c2c(C)noc2C)c1 (stereo not given) | inconclusive: 22.4 µM [inhibitor, full curve, poor fit] | 
O=C(Nc1cccc(S(=O)(=O)NC2=NCCC2)c1)c1ccc(OC(F)F)cc1 | inconclusive: 5.01 µM [inhibitor, partial curve, poor fit] | 
COc1ccc(-c2csc(NC(=O)C3CC(=O)N(Cc4ccco4)C3)n2)cc1 (stereo not given) | inconclusive: 44.7 µM [inhibitor, partial curve] | 
COc1ccc2cc1Oc1cc3c(cc1OC)CC[N+](C)(C)C3Cc1ccc(cc1)Oc1c(OC)c(OC)cc3c1C(C2)[N+](C)(C)CC3 (stereo not given) | inconclusive: 2 µM [inhibitor, partial curve, poor fit] | 
COc1cccc(N2CCN(C(=O)C3CCN(S(=O)(=O)c4cccs4)CC3)CC2)c1 | inconclusive: 56.2 µM [inhibitor, partial curve, poor fit] | 
CCCN1CC(O)=C(C#N)C1=O |  | inactive: -40.5% [at 102 µM]
S=C(NCc1ccccn1)Nc1ccccc1Cl | inconclusive: 39.8 µM [inhibitor, single point] | 
CN(C)CC(=O)c1c[nH]c2ccccc12 |  | inactive: 27% [at 0.501 µM]
